In PubChem BioAssay (NCI):
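In this assay, cells in 96-well plates receive the compound at five concentrations for 48 hours. Endpoints are linearly interpolated between the surrounding concentrations. At the GI50, growth is halved. Definition used: TGI = concentration required for complete inhibition of growth.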

Tested on: NCI-H322M lung
Assay: DTP human tumour cell line panel, 48 h

SMILES | TGI [µM] | GI50 [µM]
C/C(=N\N(c1ccccc1)c1ccccc1)c1c(O)cc(C)oc1=O | > 100 | 
COC(=O)c1nc(Cl)nc(Cl)c1Cl | > 100 | 
Cc1ccc(-c2csc(NC(=O)CN3CCN(c4cc5c(cc4F)c(=O)c(C(=O)O)cn5C4CC4)CC3)n2)cc1 | 9.95 | 1.93
C/C=C(/C)C(=O)OC1CC(C)[C@H]2CC(=O)C(C)=C2CC1C(C)(C)OC(C)=O (some centres not stated) | > 100 | 
O=C(O)c1cccc2cccc(-c3cccc4cccc(C(=O)O)c34)c12 | > 100 | 
O=C1C=CC(=O)c2c(O)c(N3CCC[C@H]3CO)c(Cl)c(O)c21 | > 10 | 
c1ccc2c(c1)Sc1nccc3ccnc-2c13 | > 100 | 
COc1ccc(OC2OC(CO)C(OCc3ccccc3)C(OCc3ccccc3)C2OCc2ccccc2)cc1 (configuration not stated) | > 100 | 
COc1cccc2c1C(=O)c1c(O)c3c(c(O)c1C2=O)C[C@H](O)C[C@@H]3OC1CC(N)C(O)C(C)O1 (some centres not stated) | 11.7 | 
COC(=O)C1(CCCCCBr)CCCCCCCCCCC1=O (configuration not stated) | 73.5 | 
Cc1cc2ncn(C3CCCCO3)c2cc1C (configuration not stated) | > 100 | 
O=C1c2cc(Cl)ccc2-c2c1c1ccc([N+](=O)[O-])cc1c(=O)n2CCCBr | > 100 | 25.9
C=C1C(OC2O[C@@H]3O[C@@]4(C)CC[C@H]5[C@H](C)CC[C@@H](C2=C)[C@@]35O4)O[C@@H]2O[C@@]3(C)CC[C@H]4[C@H](C)CC[C@@H]1[C@@]24O3 (some centres not stated) | > 50 | 
N#CC1(O)CCCCCCCCCCC1 | > 100 | 
C1=C2C3=[N+](CCCCC3)CC2Cc2ccsc21 (configuration not stated) | > 100 | 
CC(=O)NC(CCCCNC(=O)NCCCl)C(=O)NCc1ccccc1 (configuration not stated) | > 100 | 
Cn1c2c(c3ccc(Cl)c(Cl)c31)C(C#N)C1(CCNCC1)NC2=O (configuration not stated) | 13.4 | 2.7
CC(=O)OCC(OC(C)=O)C(OC(C)=O)C(OC(C)=O)C(=O)CNn1c(-c2ccccc2Cl)nc2ccccc2c1=O (configuration not stated) | > 100 | 
CCn1c2ccc(C(=O)CCCN3CCCCC3)cc2c2cc(C(=O)CCCN3CCCCC3)ccc21 | 18.5 | 
COc1ccccc1C1Nn2c(nc3ccccc3c2=O)N1c1ccc(C)cc1 (configuration not stated) | 35.2 | 
NC(=S)NNc1c([N+](=O)[O-])cnn(-c2ccccc2)c1=O | 31.8 | 
Cc1ccc(C(=O)N/N=C(\N=Nc2ccccc2)c2ccc(N(C)C)cc2)cc1 | > 100 | 
CN(C)CC1CCC/C(=C\c2ccc(OC(=O)c3ccc(Cl)cc3)cc2)C1=O (configuration not stated) | 12.5 | 
CN(C)c1ccc(/C=C(\NC(=O)c2ccccc2)c2nn(C)c(=O)o2)cc1 | > 100 | 
